Assay results as given in the supplement of paper PMC11417369.
Some of the results follow.

tested on: PF3D7_0420300 AP2 domain 1 (GST-tagged); assay: gcPBM binding intensity (ln(normalized median fluorescence intensity)); higher = stronger DNA binding
Method in brief: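 In this array assay, P. falciparum DNA-binding domains with a GST tag, expressed in E. coli, were applied for 1 h to primer-extended double-stranded 36-bp intergenic genomic probes and negative controls on an Agilent 4 × 180k array. Bound protein was visualised with Alexa488 anti-GST antibody at 488 nm. Binding intensity is the highest Masliner-normalised natural-log median intensity across replicate spots of either probe orientation.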

| Sequence | gcPBM binding intensity (ln) |
| --- | --- |
| AATAATTTTATCGGTACACACTGTATGCATAATATT [CACACA_site4364] | 9.53 |
| TTTGATCGATGGATTTAACACACAAAAAAAAAAAAA [CACACA_site9279] | 9.15 |
| CTTAATTTAATGAAATGTACATATAAAAATATTATA [XGTACX_site3303] | 8.88 |
| CTATAAATATTTTATTGTACACACTTTTTATGAATG [XGTACX_site6711] | 9.43 |
| ATATATATATAGTGCACACTTAAGAATATAAAGAGG [CACACA_site1151] | 9.45 |
| AAAATTTTTAGTTATACACACAACATAGAAAATATT [CACACA_site328] | 9.47 |
| AATACATACAGACACACACACACATATATATATATA [CACACA_site3558] | 10.1 |
| CACATACACCCATACACACACATATATATTAAGATA [CACACA_site4459] | 9.96 |
| ATGATAAACATGGATACACACATATAGATTGCATAT [CACACA_site6843] | 9.61 |
| TTCATCTTAAAATTGGGTACATAACACAAAGTATAA [XGTACX_site1894] | 9 |
| ATATATATTAACAATACACACGTGTATACCTTATTG [CACACA_site5258] | 9.55 |
| ATTTCTCTATCGTAATGTACATAAAAAAGAAAAACA [XGTACX_site6374] | 9 |
| TTATTAAATTCATAAGTGCATTTATGATTAATTTTT [GTGCAC_site9749] | 9.01 |
| TTACATGTAAAAGGTACACACATTATGTATACAAAT [CACACA_site1117] | 9.59 |
| TTTTTTTTTTTTTTTTGTCCGTACTGCTTTGTGTTT [XGTACX_site3687] | 8.93 |
| TTACCCATTCCCTTTACATGCAATTTGTATTAATAA [TGCATGCA_site412] | 9.51 |
| GTACGTTAGATATATACACACATACATAATAAAGAA [CACACA_site7327] | 9.67 |
| TTAATTCTACTTATTACACACATATTAAGCAAAAAT [CACACA_site4921] | 9.35 |
| ATATGTTCCGAAGGTTGTACACACATAGAAATATAC [XGTACX_site8227] | 9.71 |

| Sequence | gcPBM binding intensity (ln) |
| --- | --- |
| AAAATATATACAATATGTACATATATATATATATAT [XGTACX_site1898] | 9.2 |
| AAAAGGAAAAATATCACACATATATATATATATATA [CACACA_site5586] | 9.23 |
| ATTATTATACACAAATGTACATGTGAATTTTTTTTC [XGTACX_site6982] | 9.28 |
| AATAAGTAACAAAATACACACATATAGGTAATTATA [CACACA_site6949] | 9.85 |
| ATATATATTTATAGGTGTACAAAATACTATTTTAGG [XGTACX_site8499] | 9.04 |
| TACCAAATTTATTCTTGTACATATATATATATATAT [XGTACX_site4832] | 9.28 |
| AATATAGAAATAAATATATCACATTTGTGTTTAAAC [XGTACX_negctrl_site68] | 9.28 |
| TTTATGACTTGAAAAAGTACACATATATTTATGCAA [XGTACX_site5451] | 8.89 |
| TATTTATATTTATACACACACACAAAAAAAAAAAAA [CACACA_site6817] | 9.94 |
| TTGTTTTCTTTTTCTTTTCTTTTTCTTTTTTCTTTT [GTGCAC_negctrl_site629] | 9.45 |
| TATATATATATAAAGACACACATCTATAGAATGTTA [CACACA_site2557] | 9.31 |
| AAAAAAAAAAAAAAAGCACACACACCGATGTGTATA [CACACA_site8224] | 9.99 |
| TATATATATATACCTTGTACTTACATTCGCATATAA [XGTACX_site2466] | 9.32 |
| ACATAAATATATGACACACACACATATTATATATAT [CACACA_site3065] | 10 |
| GTATAATTATGTGCACGTACATATTTTATTATATAT [XGTACX_site8586] | 9.56 |
| CCATTACCATATAAAACACACAAACATACATACATA [CACACA_site5952] | 9.82 |
| TAATATATATAACAAGTGCAAAAAAATATAGATATT [GTGCAC_site9625] | 9.57 |
| GAGAACATTGATACACGTACATAAGTTATAAGTATT [XGTACX_site7665] | 9.39 |
| AAGCATCCTACTGATTGTACATATATATATATATAT [XGTACX_site2150] | 9.39 |

| Sequence | gcPBM binding intensity (ln) |
| --- | --- |
| AATAAACAAATAAATAAATAAACAGATAAATAAATC [CACACA_negctrl_site920] | 9.8 |
| TTAGGTTATAAATACACACACAAAAGAAAAAAAAAA [CACACA_site5625] | 9.88 |
| TTTATTTATATAATTACACACATATATACACAAATG [CACACA_site8903] | 9.53 |
| TATTTAAATTAATATTGTACATATATTTATAATATA [XGTACX_site6109] | 9 |
| AAATATATTATATATGCATGCGCCAAGATTTATATA [TGCATGCA_site770] | 9.11 |
| TTGCATCTATTTTTGAGTACACAATGAGAATAATTA [XGTACX_site7171] | 9.01 |
| AAAAATAAATATACATGTACATAATAATAATATATA [XGTACX_site8359] | 9.43 |
| TTTGAAAAAAAATATTGTACACGTGAATAAAGTATT [XGTACX_site644] | 9.3 |
| TATATATATATATATATATATATATATATAATTTGA [XGTACX_negctrl_site3] | 8.83 |
| AAAAAAAAAAGACACACACACACATACACATACATA [CACACA_site7362] | 10.2 |
| TTAAAAAAGTAATTAACACACAATAATGTAATGCAT [CACACA_site4176] | 9.48 |
| TTATTATATATGTTCACATAAATACATAAATATATA [GTGCAC_negctrl_site529] | 9.02 |
| ACCCAAAATATATTCACACAAAAAATATTAAAAATA [CACACA_site5433] | 9.27 |
| AACTGATATTAATTCTGTACCTATACGTTATATGTT [XGTACX_site1003] | 9.49 |
| AAGCGAATCTATATCACACACAAAAAAATCAGACTA [CACACA_site7072] | 9.62 |
| AGTTCAGAATTGAATAGTACATAAATATAACAAAAT [XGTACX_site650] | 9.51 |
| TATGAACATATATATTGTACAAAATTATAATTTCAA [XGTACX_site6406] | 9.13 |
| TATATATATTCTTTGTGTACTCATATAAGGGTAGAA [XGTACX_site8121] | 9.13 |
